± gives the standard deviation of the averaged measurements. In all, about 4,000 sequences were measured (“arbitrary fluorescence units”: median about 830, highest 2% from about 6,500 on). This part holds few or none of the hits.
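Also: Full-length recombinant human RUNX1 bound to double-stranded DNA microarray spots, detected with an Alexa488-labelled secondary antibody after the anti-RUNX1 primary, read as scanned spot fluorescence.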

The assay concerns the target RUNX1 (UniProt Q01196). Nature of the assay: RUNX1 binding intensity (PBM fluorescence), RUNX1 alone (arbitrary fluorescence units); higher = stronger binding. The note with it: RUNX1 concentration 2 nM; ETS1 concentration 0 nM. On the procedure: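 gcPBM on 36-bp genomic-derived probes (partner site mutated) containing one RUNX1 site and no ETS1 site. Recombinant human RUNX1 (2 nM) was incubated alone or with ETS1 (25 nM) and detected by anti-RUNX1 antibody fluorescence. Values are medians over 4 replicate spots (not normalised). The probes sit in constant array flanks that are not printed.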
Sequence of UniProt Q01196 (Q01196 whole entry): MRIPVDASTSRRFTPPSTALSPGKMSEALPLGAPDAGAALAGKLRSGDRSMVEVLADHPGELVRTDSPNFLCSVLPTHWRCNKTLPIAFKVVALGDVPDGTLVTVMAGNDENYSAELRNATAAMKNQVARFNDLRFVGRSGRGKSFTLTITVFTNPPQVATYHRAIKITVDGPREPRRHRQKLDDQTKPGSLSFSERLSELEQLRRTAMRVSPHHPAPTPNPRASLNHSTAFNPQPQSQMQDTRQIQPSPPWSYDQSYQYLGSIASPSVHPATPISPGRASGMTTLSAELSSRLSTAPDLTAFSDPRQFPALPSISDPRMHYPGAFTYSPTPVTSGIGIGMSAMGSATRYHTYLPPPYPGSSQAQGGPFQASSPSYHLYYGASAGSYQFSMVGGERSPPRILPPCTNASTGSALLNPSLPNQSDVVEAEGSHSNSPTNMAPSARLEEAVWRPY
In the case of AGGCGCTGTGGGGATGGTGAGGACGCTATCAGGGGC, the RUNX1 binding intensity stood at 701.

Sequence TGATGTAAACTGGACCAGCCGCTGCGGGCAAAGGAG displayed an RUNX1 binding intensity of 739.

Consider CCTACCACTGCGGGCAGCGCTTGCGCTTTCCTCCTC, for which the RUNX1 binding intensity was found to be 1050.

With GCAGAAACAGAAAGAGACAGGGCTGACCGCAGCAGG, the RUNX1 binding intensity came to 1360.

As to GGTTCAGCCCCAGCAAGATCAGACCACAGAAGCGGA, the RUNX1 binding intensity was 826.

TGACGTCATCCCGCAGCGCCGGGAGCGGTGAGGCAC returned an RUNX1 binding intensity of 752.

CACCTCACAGCCTGGATACAAACCGCCTACCCGCCC returned an RUNX1 binding intensity of 1300.

With CTGCCTTTGCTGCTAGGGTACAAACCACAGCCTTAG, the RUNX1 binding intensity was 1040.

CCCATCGCCGCAGCTCAAGTTTGTCTCCTTTTCATC came in with an RUNX1 binding intensity of 1520.

The sequence ATCTCACTGTGGTTTTACTTTGCATTTGCTGTACTC yielded an RUNX1 binding intensity of 2390.

For the sequence CGTTATTTACGGGGCTGGGTTAACGCAGCGGTTCCA, the RUNX1 binding intensity was determined as 748.

Regarding CTTGCTTAACGCTCCCTGAGGGGTGGTTTGGGTTTT, the RUNX1 binding intensity amounted to 866.

GAGGAGGAAAGCGCAAGCGCTGCCCGCAGTGGTAGG: the RUNX1 binding intensity came out at 671.

Sequence AGCTTTGCGGGCTGTATCAGTCTCAGCAGCAAGAAG displayed an RUNX1 binding intensity of 828.

CCGCCACCGTAAGCGCCCTCCTAATCCCCGCAGCGC displayed an RUNX1 binding intensity of 1080.

In the case of TTCTTAGCAGAGCAAGCTGTTTGCGGGGAAAAAGGG, the RUNX1 binding intensity was found to be 721.

Turning to TGCTGCTCACCCCGCAGAAAGGAGATGGGACCGGCG, the RUNX1 binding intensity came out at 806.

On to TTACCTTCATGCTGCCACCAAAGCACCAAACCACCA, for which the RUNX1 binding intensity was 1100.

CCGGTTCCCACAGAGCAGGGGGCTTACGGCGGGGTA registered an RUNX1 binding intensity of 847.

For the sequence GCAGCCCAGCTTGCTGCAGACCAAAACCACAAGCAG, the RUNX1 binding intensity came to 1300.

As for GCACTCATTGCCTGTCCCCTGTGGTTTAAAGGTTTT, the RUNX1 binding intensity was found to be 902.

Sequence AGGCCTGCGGCGGCAGAAGGAAAGACAAGGAACTAC yielded an RUNX1 binding intensity of 740.

On to AGTTGCATACGCGGTATTGGGCAGGCAATGGCAGGG, for which the RUNX1 binding intensity was found to be 738.

The sequence GCCCAGCAAGTGGGTACAAAATGAGCCACAAGACCT returned an RUNX1 binding intensity of 776.

The sequence TCCTGCTTCGGCCTCCGCTGCAGCCTCTCCCGCAGA registered an RUNX1 binding intensity of 831.

Sequence AACTCCTGGCCCGAACGGCACAGACCGCACTCCCGC returned an RUNX1 binding intensity of 1080.

Consider GCCCCTTTTTGCTGGGATGAGCGGTTAGCGGAGGGG, for which the RUNX1 binding intensity was 1100.

TACGCTTCTGCGGCCGCCTAACCCGGGAGCGAAACC came in with an RUNX1 binding intensity of 857.

In turn, CTCGGAGAGGAACTACTAGGGTGGTTTCTCCTGAGG yielded an RUNX1 binding intensity of 661.

Regarding GACGCAGCATGAGCTGGAGGTGTAGAATGTGGTGCT, the RUNX1 binding intensity was 789.

The sequence ACTTCTCCGCCCGCAGGCCACTCCCGGCCCCTGTAA yielded an RUNX1 binding intensity of 1740.

Sequence TCCATGAAGGGGCAGGGGCCTGCTTGTGGGTTTAAA showed an RUNX1 binding intensity of 718.

Take ACAGAGGTGCTACCACAAGGACCGTAAGCAGAGACC: the RUNX1 binding intensity turned out to be 855.

For TGTGCATGTGGTTTTCGGGTATGTGATTGCCTCTTT, the RUNX1 binding intensity amounted to 1410.

On to CCTGCGTCTCCCTCATGAGCTTCTTCGGCCCGCAAC, for which the RUNX1 binding intensity stood at 1030.

In turn, GCAGGACTCCAGGGAGCCCGCGCAGCCGCAAAAAGC had an RUNX1 binding intensity of 750.

On to AGCACCCCAGGCAACCATCGCCTCAGCCCACATATT, for which the RUNX1 binding intensity is 1200.

With CCCACCCGTAAATGAGCCAACAGTGGTTTCGCCCCG, the RUNX1 binding intensity was 1050.

TGCCCTTCTTTCTGCGGGCCTTTCCGATACTTGAGC displayed an RUNX1 binding intensity of 997.

GAAGCTGCGGTGAAGTCTGAAGTTGCCTGGGCCGGG showed an RUNX1 binding intensity of 2270.

In turn, GTTCTCAGCTTCATGTTCACAGAGAAACCTCAGACA came in with an RUNX1 binding intensity of 791.

CCCTACACCCCACAATCCCCCGCGCCGTTCGGGAGG: the RUNX1 binding intensity came out at 1110.

Sequence CGGGTTGAGAACCACAGCCTTCACATACGGCTTTTT returned an RUNX1 binding intensity of 931.

Take ATCAAAGAACGGCTATTGCTGTGACACCGCGGGGAC: the RUNX1 binding intensity worked out at 701.

GCCGTGCGGTTTCCAGGCCCTACTGCCTGCCATATC registered an RUNX1 binding intensity of 3120 ± 1000.

CTGGGCTAGGTGGTCAAGTTTCAGGGGAGGGGAGCT yielded an RUNX1 binding intensity of 766.

As to GCCATGCGCAGGACTCCGCGTTCTCGCGGTAAGTGG, the RUNX1 binding intensity was 697.

Regarding CTGTGTCCGCGGTGCAAGGGGTCCCGGCGAGGCCAA, the RUNX1 binding intensity is 679.

CCAACAGTACCCTGCCTCCCTTAACCACAAGACTGA yielded an RUNX1 binding intensity of 5490.

GAAGAAATGTGGCTATCATCTTGCGTCCTTCACCGA had an RUNX1 binding intensity of 726.

Consider ACCAGAACAGCAAATGTTAGTGGTTGAGTTAACGGT, for which the RUNX1 binding intensity is 739.

GTGGAAAGGCAATGTGTCATCTGTGGTTTGGTTTTA gave an RUNX1 binding intensity of 1040.

Consider CCCAGCCACCTCCCAGAGCAGCTAACCCACAGTCCT, for which the RUNX1 binding intensity was 1060.

Regarding AGCACCCCAGATCCTGCACCCCACAACCCAGATCCC, the RUNX1 binding intensity stood at 1110.

As for GCCCCGGTGGTTTTGACCTCCCGCGAACGTCCCTTT, the RUNX1 binding intensity worked out at 883.

The sequence ACTCCGCCCCCTCCGCCTGGCGGTTCCACTTCTCGG returned an RUNX1 binding intensity of 946.

GTAAATAAAGAGGAGGTCCCTATGCGGGGGATGGGG had an RUNX1 binding intensity of 908.

As for ACAACCTCACCGCGCGGCGCCGCCACCGAAAAAGGA, the RUNX1 binding intensity was determined as 934.

GAGGAGGCTGTGGTCTGTGTACCCAGGGTGTGCTAA: the RUNX1 binding intensity turned out to be 913.

Turning to GTTTCCACTTGCTGCTGTGCAGCAGTACCACCAAGA, the RUNX1 binding intensity was determined as 909.

Sequence AGGCAACTCCCACAAACCCCCGTACGCGGAACACTG displayed an RUNX1 binding intensity of 947.

ATGGCGGCCGCAGCAGTGGGCAGTTGAGTTTTCGGG had an RUNX1 binding intensity of 729.

Sequence CCGGAGGCCGCAGGCCGCTCAGGCTTGCGCTCCCAC showed an RUNX1 binding intensity of 813 ± 110.

Source of the values: the supplement of paper PMC10681739.
